From the RNAGym collection of RNA variant scans (doi:10.1093/nar/gkz1192) come the findings set out here.

The source gives no read counts; variants with many changes may rest on few reads.

B1: CPEB3 Ribozyme (parent)
chain: UAACAGGGGGCCACAGCAGAAGCGUUCACGUCGCAGCCCCUGUCAGAUUCUGGUGAAUCUGCGAAUUCUGCUGUAUAUCUC

The variants in the data set derive from B1. The data set is described as follows: self-cleavage, relative activity (ratio to wild type); higher = more cleavage; in vitro, sequencing. A digest of the protocol:
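Relative activity was defined as the cleaved/total read fraction for a variant divided by the same fraction for the unmutated ribozyme. CPEB3 self-cleaving ribozyme libraries were made by rounds of error-prone PCR, barcoded, and transcribed in vitro with T7 RNA polymerase for 5 hours at 37°C, and cleavage ran through transcription plus a 15 min DNase I step before EDTA. Illumina sequencing of template-switched reverse transcripts gave the reads, and DNA sequencing mapped the barcodes. Averages come from three batches, using variants with at least 5 reads.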
Regarding C23G U48C U49A A64G, the self-cleavage came to 0.44.

In the case of G24A A28G U41C U80C, the self-cleavage amounted to 0.28.

Turning to A21G U43A A45U, the self-cleavage came to 0.6.

With A21G U43A U69C U80C, the self-cleavage is 0.16.

As to U25A U31A C40U U48C U72A U76C, the self-cleavage came out at 0.09.

Take G24C G36C U74C A75G: the self-cleavage was determined as 0.04.

Consider A21G U41C U48C, for which the self-cleavage is 0.36.

As to C23A U72C A77G, the self-cleavage is 0.09.

Regarding G24A U26C A35G A64G U78C, the self-cleavage was found to be 0.13.

In the case of A21U C38U G46C A47G, the self-cleavage was determined as 0.1.

For C23G U25G U48A, the self-cleavage was 0.11.

For A21G U48C C71U U76C U78C, the self-cleavage was found to be 0.17.

Turning to A21U U26C A56G, the self-cleavage was 0.08.

In the case of A21G U48C A77U, the self-cleavage amounted to 0.42.

Turning to A21U U43A U48C G55U U72C, the self-cleavage came to 0.11.

For C23U U26C U51C A56G U76C U78A, the self-cleavage was 0.04.

Turning to A21G U51A U66C, the self-cleavage came out at 0.9.

As to U25A A35G U72C U80A, the self-cleavage came to 0.39.

For U25A C62U U78C, the self-cleavage was 0.07.

As to C23G A28G U31A U51C, the self-cleavage turned out to be 0.18.

Turning to A21G U41A A56U U78C, the self-cleavage amounted to 0.45.

On to C23G A28U A35U U49G A57G U76C, for which the self-cleavage turned out to be 0.1.

In the case of A21G U41C A56G, the self-cleavage amounted to 0.44.

For G24U A28G U58A U72A U78A, the self-cleavage turned out to be 0.08.

For A21U C32U C39G U43G, the self-cleavage came out at 0.22.

For G24U A35G C37U U48C U60C U69C, the self-cleavage came out at 0.12.

Take C23U A35G U72C A77U: the self-cleavage stood at 0.95.

With U25A A28U U60C, the self-cleavage amounted to 0.13.

Take A21U U26C A57G U74A A75U: the self-cleavage worked out at 0.36.

Take G22A A28G U69A: the self-cleavage came out at 0.09.

With U25A U43C A57G, the self-cleavage turned out to be 0.08.

For the variant G24C U49C U78G, the self-cleavage is 0.22.

In the case of C23G U25C U26C A35G U72A A75G U80C, the self-cleavage was 0.09.

For the variant G22U U25C A45G U54C, the self-cleavage came to 0.12.

Consider C23U A35U G46C U48C U54C A65G U80C, for which the self-cleavage is 0.05.

In the case of U25A C32U A45G U49A U60A U72C, the self-cleavage turned out to be 0.14.

As to U25A U43C A56G U69C, the self-cleavage amounted to 0.08.

As for C23U U26C U49C A56U U60C, the self-cleavage was 0.08.

Regarding A21G U51A U69C C79G, the self-cleavage turned out to be 0.27.

On to C23G A45G U74G, for which the self-cleavage came out at 0.06.

With C23A G36U C38A U41C A56G, the self-cleavage was found to be 0.07.

Turning to G24A A28G C38G U66C C68A U69C U72C, the self-cleavage amounted to 0.18.

Turning to U25A A28C U69A, the self-cleavage turned out to be 0.33.

For A21G U43C C71G, the self-cleavage was 0.19.

As to A21U U54A U60A A64G, the self-cleavage came out at 0.27.

With A21G U43C U60C U66C U69A U76C, the self-cleavage is 0.09.

As to A21G U43A U66A U76C, the self-cleavage was 0.55.

Turning to U25A U43C U48C U67C U80A, the self-cleavage was 0.09.

Regarding A21G U51G A64G U80C, the self-cleavage is 0.62.

For G24A A57U G63C U72C U80A, the self-cleavage came out at 0.05.

Take A21U U54A U66C: the self-cleavage was found to be 0.3.

For the variant C23U A35C U41C U69C, the self-cleavage was 0.08.

For the variant G24C G36A C37U U67C, the self-cleavage was found to be 0.12.

On to G24U U41G A77G, for which the self-cleavage is 0.11.

On to C23A A35G U41A U58C U67C, for which the self-cleavage was found to be 0.07.

C23U U41A A64G: the self-cleavage is 0.3.

As for A21G U54A U72A, the self-cleavage is 0.26.

Turning to C23U G30A A64G U66C U80C, the self-cleavage was determined as 0.09.

For the variant G24U C38U U54C, the self-cleavage stood at 0.12.

As for G22A U31C U43C A47G A57U U67C A77U, the self-cleavage was found to be 0.04.

With A21G U54A A56G U60C, the self-cleavage amounted to 0.11.

For the variant A21U U60A U69C, the self-cleavage is 0.08.

In the case of A21U U25A A35G U51C U80C, the self-cleavage was 0.54.

On to A21U A28U U31C U43C A56G A64U, for which the self-cleavage amounted to 0.11.

With A21U U41C A45G, the self-cleavage worked out at 0.35.

In the case of A21U U26C U58G A77U, the self-cleavage was found to be 0.1.

For G22U G33A A35U U58C U66A U72A, the self-cleavage turned out to be 0.06.

C23U U25G U69C U72C A77U U80C: the self-cleavage came to 0.04.

Regarding A21U U31A G52A G70C, the self-cleavage is 0.09.

U25A U41C A45U: the self-cleavage is 0.28.

As for G24U U67C G70U, the self-cleavage is 0.13.

U25A U43C A45C U60A: the self-cleavage was 0.19.

For the variant A21G U67C U72C A77U, the self-cleavage was 0.1.

Regarding U25A C27U A35C U60A C62U, the self-cleavage was 0.07.

Consider A21U U43C U49A A57G, for which the self-cleavage turned out to be 0.11.

With C23A A28G U54C C79U, the self-cleavage worked out at 0.13.

C23G U26C C38U U43C U54A A57U A75G: the self-cleavage was determined as 0.06.

In the case of C23G U26C A57G U58C U76C, the self-cleavage came out at 0.06.

Consider C23U A47G A56G U69C U76C, for which the self-cleavage was found to be 0.07.

For the variant C23A A57G A64G A77G, the self-cleavage came to 0.13.

As to A21G U43C G73A, the self-cleavage was 0.36.

Take U25A A47G U54A: the self-cleavage turned out to be 0.11.

In the case of A21G U49A U78G C81U, the self-cleavage amounted to 0.52.

As for C23U A35U U43C U49C U67C U69C U80C, the self-cleavage worked out at 0.07.
